Experimental data as given in the supplement of paper PMC12297408.
Counter-ions that a name gives are not always drawn. In all, about 1,300 compounds went through this assay and about 40 (3%) showed activity. The list shows a part of the results.

System: Plasmodium falciparum NF54/iGP1_RE9H ulg8 stage V gametocytes
Assay: gametocyte viability (luciferase signal relative to DMSO control) (% of DMSO control); higher = less gametocytocidal activity, active = 50 or less
Conditions: exposure time: 72 h
Procedure, shortened: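 In 96-well plates holding nanolitre spots of compound (10 mM DMSO stocks), NF54/iGP1_RE9Hulg8 stage V gametocytes from day 12 were added at ~2.5% gametocytemia and 3% hematocrit in medium with 0.5% Albumax II, giving single wells at 10 µM or 1 µM. Incubation lasted 72 h at 37 °C. Each 90 µl sample then received 10 µl D-luciferin (30 mg/ml) before luminescence reading on an IVIS Lumina II, and viability was normalized to the mean of DMSO vehicle wells on the same plate.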

| SMILES | gametocyte viability (concentration: 1 µM) | gametocyte viability (concentration: 10 µM) |
| --- | --- | --- |
| CC(C)(N)Cc1ccccc1 [Phentermine hydrochloride] | inactive: 91.4 | inactive: 85.5 |
| CCNCC(O)c1cccc(O)c1 (configuration not stated) [Etilefrine hydrochloride] | inactive: 87.9 | inactive: 90.2 |
| COc1ccc(C(CN(C)C)C2(O)CCCCC2)cc1 (configuration not stated) [Venlafaxine] | inactive: 78.5 | inactive: 81.8 |
| CNC(=O)Oc1ccc2c(c1)[C@]1(C)CCN(C)[C@@H]1N2C [Eserine sulfate, physostigmine sulfate] | inactive: 83.4 | inactive: 79 |
| CN(C)C(=O)Oc1cccc([N+](C)(C)C)c1 [Neostigmine bromide] | inactive: 83.4 | inactive: 88.4 |
| CNC(C)(C)Cc1ccccc1 [Mephentermine hemisulfate] | inactive: 87.5 | inactive: 83.5 |
| C[C@]12CCC(=O)C(O)=C1CC[C@@H]1[C@@H]2CC[C@]2(C)C(=O)CC[C@@H]12 [Formestane] | inactive: 81.3 | inactive: 84.1 |
| CCC1=C[C@H]2CN3CCc4c([nH]c5ccccc45)[C@](C(=O)OC)(C2)[C@H]13 [Catharanthine] | inactive: 90.9 | inactive: 98.3 |
| CC(C)C[C@H]1C(=O)N2CCC[C@H]2[C@]2(O)O[C@](NC(=O)[C@@H]3C=C4c5cccc6[nH]c(Br)c(c56)C[C@H]4N(C)C3)(C(C)C)C(=O)N12 [Bromocryptine mesylate] | inactive: 84.2 | inactive: 66.9 |
| CN1[C@@H]2CC[C@H]1C[C@@H](OC(=O)C(CO)c1ccccc1)C2 (some centres not stated) [Atropine sulfate monohydrate] | inactive: 87.4 | inactive: 91 |
| NCCCNCCSP(=O)(O)O [Amifostine] | inactive: 86.2 | inactive: 88 |
| C#CCN(C)[C@H](C)Cc1ccccc1 [Selegiline hydrochloride] | inactive: 105 | inactive: 98.5 |
| CN(C)C(=O)Oc1ccc[n+](C)c1 [Pyridostigmine iodid] | inactive: 88.9 | inactive: 90.3 |
| C[C@@H]1O[C@@H](O[C@@H]2C=C3CC[C@@H]4[C@H](CC[C@]5(C)[C@@H](c6ccc(=O)oc6)CC[C@]45O)[C@@]3(C)CC2)[C@H](O)[C@H](O)[C@H]1O [Proscillaridin A] | inactive: 81.2 | inactive: 76.2 |
| C[C@]12CC[C@@H](O)C[C@H]1CC[C@@H]1[C@@H]2CC[C@]2(C)C(=O)CC[C@@H]12 [3-alpha-Hydroxy-5-beta-androstan-17-one] | inactive: 86 | inactive: 76.8 |
| O=c1[nH]c2ccccc2n1C1CCN(CCCC(c2ccc(F)cc2)c2ccc(F)cc2)CC1 [Pimozide] | inactive: 83.3 | inactive: 82.9 |
| C[N+]1(C)CCCC(OC(=O)C(O)(c2ccccc2)c2ccccc2)C1 (configuration not stated) [Mepenzolate bromide] | inactive: 96.4 | inactive: 93.7 |
| OC(c1ccccc1)(c1ccccc1)C1CCNCC1 [Azacyclonol] | inactive: 89.1 | inactive: 92.8 |
| NC(=O)OCCCc1ccccc1 [Phenprobamate] | inactive: 83.5 | inactive: 64.5 |

| SMILES | gametocyte viability (concentration: 1 µM) | gametocyte viability (concentration: 10 µM) |
| --- | --- | --- |
| CCC1(C)CC(=O)NC(=O)C1 [Bemegride] | inactive: 90.9 | inactive: 81.7 |
| CCCC(C)(COC(N)=O)COC(=O)NC(C)C (configuration not stated) [Carisoprodol] | inactive: 78.8 | inactive: 77.9 |
| COc1ccc(OC)c(C(O)C(C)N)c1 (configuration not stated) [Methoxamine hydrochloride] | inactive: 87.2 | inactive: 88.9 |
| CCC(=O)O[C@H]1CC[C@H]2[C@@H]3CCC4=CC(=O)CC[C@]4(C)[C@H]3CC[C@]12C [Testosterone propionate] | inactive: 80.6 | inactive: 78.8 |
| C=CCC1(CC(C)C)C(=O)NC(=O)NC1=O [Butalbital] | inactive: 88.8 | inactive: 86.7 |
| O=C(CCCN1CCC(n2c(=O)[nH]c3ccccc32)CC1)c1ccc(F)cc1 [Benperidol] | inactive: 80.1 | inactive: 87.1 |
| C[C@@H]1CN([C@H]2CC[C@](C#N)(c3ccc(F)cc3)CC2)CC[C@]1(C(=O)O)c1ccccc1 [Levocabastine hydrochloride] | inactive: 86.5 | inactive: 88.3 |
| C[C@]12COC(=O)C[C@@H]1CC[C@@H]1[C@@H]2CC[C@@]2(C)[C@H]1CC[C@]2(C)O [Oxandrolone] | inactive: 81.4 | inactive: 78.9 |
| O=P1(N(CCCl)CCCl)NCCCO1 (configuration not stated) [Cyclophosphamide] | inactive: 80.6 | inactive: 81.9 |
| CN1C(=O)CCS(=O)(=O)C1c1ccc(Cl)cc1 (configuration not stated) [Chlormezanone] | inactive: 83.3 | inactive: 91.3 |
| CN(C)[C@@H]1C(=O)C(C(N)=O)=C(O)[C@@]2(O)C(=O)C3=C(O)c4c(O)cccc4[C@@](C)(O)[C@H]3[C@H](O)[C@@H]12 [Oxytetracycline dihydrate] | inactive: 82.8 | inactive: 89.4 |
| C[C@]12C/C(=C/O)C(=O)C[C@@H]1CC[C@@H]1[C@@H]2CC[C@@]2(C)[C@H]1CC[C@]2(C)O [Oxymetholone] | inactive: 90.6 | inactive: 90.5 |
| CC(=O)[C@H]1CC[C@H]2[C@@H]3CC[C@H]4C[C@H](O)CC[C@]4(C)[C@H]3C(=O)C[C@]12C [Alfaxalone] | inactive: 85.4 | inactive: 79.8 |
| C=C1C[C@@H]2[C@H](CC[C@]3(C)C(=O)CC[C@@H]23)[C@@]2(C)C=CC(=O)C=C12 [Exemestane] | inactive: 83.4 | inactive: 74.9 |
| Oc1ccc2c3c1O[C@H]1[C@@H](O)CC[C@@]4(O)[C@@H](C2)N(CC2CCC2)CC[C@]314 [Nalbuphine hydrochloride] | inactive: 98.9 | inactive: 111 |
| CC(=O)O[C@H]1CC[C@@]2(C)C(=CC[C@@H]3[C@@H]2CC[C@]2(C)C(=O)CC[C@@H]32)C1 [Dehydroisoandosterone 3-acetate] | inactive: 90.9 | inactive: 90 |
| O=C(NCNC(=O)NC1C(=O)NC(=O)N1CO)NC1C(=O)NC(=O)N1CO (configuration not stated) [Imidurea] | inactive: 84.1 | inactive: 88.9 |
| CN1C[C@H](CNC(=O)OCc2ccccc2)C[C@@H]2c3cccc4c3c(cn4C)C[C@H]21 [Metergoline] | inactive: 91.9 | inactive: 76.2 |
| CC(C)c1cccc(C(C)C)c1O [Propofol] | inactive: 88.4 | inactive: 83.7 |

| SMILES | gametocyte viability (concentration: 1 µM) | gametocyte viability (concentration: 10 µM) |
| --- | --- | --- |
| C[C@]12CC[C@H](O)C[C@H]1CC[C@@H]1[C@@H]2CC[C@]2(C)[C@@H](C3=CC(=O)OC3)CC[C@]12O [Digitoxigenin] | inactive: 69.6 | inactive: 68.6 |
| CC[N+]1(C)CCCC(OC(=O)C(O)(c2ccccc2)c2ccccc2)C1 (configuration not stated) [Pipenzolate bromide] | inactive: 87.5 | inactive: 83.4 |
| c1ccc2c(c1)OCC(C1=NCCN1)O2 (configuration not stated) [Idazoxan hydrochloride] | inactive: 97.6 | inactive: 96.1 |
| CCCCCC[C@H]1C(=O)O[C@H](C)[C@H](NC(=O)c2cccc(NC=O)c2O)C(=O)O[C@@H](C)[C@@H]1OC(=O)CC(C)C [Antimycin A] | inactive: 86.4 | inactive: 94.3 |
| COc1cc2c(c(OC)c1OC)-c1ccc(OC)c(=O)cc1[C@@H](NC(C)=O)CC2 [Colchicine] | inactive: 91.5 | inactive: 92.5 |
| CC1C=CC=CCCC=CC=CC=CC=CC(OC2OC(C)C(O)C(N)C2O)CC2OC(O)(CC(O)C(O)CCC(O)CC(O)CC(O)CC(=O)OC(C)C(C)C1O)CC(O)C2C(=O)O (configuration not stated) [Nystatine] | inactive: 84.3 | inactive: 88.1 |
| O=c1[nH]oc2c1CCNC2 [THIP Hydrochloride] | inactive: 88 | inactive: 94.1 |
| Cc1cc(C(C#N)c2ccc(Cl)cc2)c(Cl)cc1NC(=O)c1cc(I)cc(I)c1O (configuration not stated) [Closantel] | inactive: 100 | inactive: 105 |
| C[C@@H]1C[C@@H]([C@H](O)CC2CC(=O)NC(=O)C2)C(=O)[C@@H](C)C1 [Cycloheximide] | inactive: 81.8 | inactive: 78.9 |
| CC[C@@H](CO)NC(=O)[C@@H]1C=C2c3cccc4[nH]cc(c34)C[C@H]2N(C)C1 [Methylergometrine maleate] | inactive: 81.1 | inactive: 79.9 |
| CC(O)(CS(=O)(=O)c1ccc(F)cc1)C(=O)Nc1ccc(C#N)c(C(F)(F)F)c1 (configuration not stated) [Bicalutamide] | inactive: 87.3 | inactive: 75.9 |
| CCOC(=O)c1cncn1[C@H](C)c1ccccc1 [Etomidate] | inactive: 87.9 | inactive: 81 |
| O=C(CCCN1CCC2(CC1)C(=O)NCN2c1ccccc1)c1ccc(F)cc1 [Spiperone] | inactive: 86.4 | inactive: 87.6 |
| CC(N)C(O)c1ccccc1 (configuration not stated) [Phenylpropanolamine hydrochloride] | inactive: 84 | inactive: 86.2 |
| C=C1CC[C@@]2(O)[C@H]3Cc4ccc(O)c5c4[C@@]2(CCN3CC2CC2)[C@H]1O5 [Nalmefene hydrochloride] | inactive: 97.6 | inactive: 95.3 |
| O=[N+]([O-])O[C@H]1CO[C@H]2[C@@H]1OC[C@H]2O[N+](=O)[O-] [Isosorbide dinitrate] | inactive: 85.6 | inactive: 82.1 |
| NCC1(CC(=O)O)CCCCC1 [Gabapentin] | inactive: 96.8 | inactive: 93.9 |
| N[C@@H]1C[C@H]1c1ccccc1 [Tranylcypromine hydrochloride] | inactive: 92.6 | inactive: 91.8 |
